Data taken from PubChem BioAssay AID1508623 (National Center for Advancing Translational Sciences (NCATS), 2021).
The whole screen tested about 48,000 compounds, of which about 450 (0.94%) were called active. Roughly 19% stayed inconclusive and do not appear here. The call rests on the fitted dose curve; in most records, active means well fitted inhibition curve with a large enough effect; inconclusive means small, poorly fitted or top-dose-only effect; inactive means no such curve, though single readings can be large or run the other way. This is one part of the list.

assay: Primary qHTS for Identification of Small Molecule Inhibitors of Huntingtin Promoter Activity; settings: HEK293 HTT promoter firefly luciferase reporter (activity 0% = vehicle and -100% = no light), 24 h; series mostly up to 57.5 µM; activity change, negative = inhibition: at the top concentration; further: nearly all actives have a fitted effect of over 50% in size
Procedure, shortened: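 Luminescence was read after Dual-Glo reagent and a 10 min room-temperature incubation. Values were normalized to vehicle (0% activity) and zero RLU (-100% activity). Reporter HEK293 cells had been exposed to compounds (up to 57.5 uM final) for 24 h.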

Activity change, negative = inhibition, inactive:
Cc1ccc2oc(-c3cccc(NC(=O)Cc4ccc(Cl)cc4)c3)nc2c1 -3.95%, Cc1ccc(Sc2c(C)nn(C(=O)c3ccc(Cl)cc3)c2C)cc1 -6%, CCOC(=O)c1c(S(=O)(=O)N2CCCC(C(=O)Nc3ccc(C)cn3)C2)c(C)n(C)c1C (stereo unspecified) -10.9%, Cc1ccc(-n2c3nc(=O)[nH]c(=O)c-3cc3c(C)nn(-c4ccccc4)c32)cc1C -14.2%, Cc1cccc(NC(=O)CSc2nc3ccccc3nc2N2CCOCC2)c1C -3.73%, CCOc1ccc(CNS(=O)(=O)c2cc3c(cc2C)NC(=O)CO3)cc1 -5.14%, CC(=O)c1ccc(N2CCN(C(=O)CCCCn3c(=O)[nH]c4ccsc4c3=O)CC2)cc1 -2.41%, CCSc1nnc(NC(=O)c2cc(=O)c3cc(C)c(C)cc3o2)s1 -8.76%, COc1ccc(Cn2c(=O)c3cccnc3n(CC(=O)Nc3c(C)cc(C)cc3C)c2=O)cc1 5.83%, CCc1cnc2c(c1SCC(=O)c1ccc(Cl)cc1)c(=O)n(C)c(=O)n2C -17.8%, CCOC(=O)c1c(-c2ccc(OC)cc2)oc2ccc(OCc3ccc(Br)cc3)cc12 -4.01%, Cc1ccc(N(CC(=O)Nc2ccc(Br)cc2)S(=O)(=O)c2cccs2)cc1 -11.1%, COc1ccc(S(=O)(=O)n2nc(C)c(S(=O)(=O)N3CCC(C)CC3)c2C)cc1OC -5.1%, O=C(Nc1nnc2n1CCS2)c1ccccc1C(F)(F)F 1.19%, CC(C)CCNC(=O)CCC(=O)NNc1nc2ccccc2c2nc(-c3ccccc3)nn12 -5.73%, COc1cc(OC)cc(C(=O)N2CC(=O)Nc3ccc(Cl)cc3C2c2ccccc2)c1 (stereo unspecified) -10.9%, COc1ccc(C2=C(C)C(N3CCC(C(=O)Nc4ccc(F)cc4C)CC3)=NS2(=O)=O)cc1 -19.3%, O=C(Nc1ccc(Cl)c(C(F)(F)F)c1)C(Cc1ccccc1)NS(=O)(=O)c1ccc(Br)s1 (stereo unspecified) 1.74%, CCOc1ccc(NC(=O)C(=O)NCc2ccco2)cc1 -18.1% [at 11.5 µM], COc1cccc(C(=O)NCC(c2ccc3c(c2)OCO3)N2CCOCC2)c1 (stereo unspecified) -4.54%, O=C(NCc1ccccc1)C(=O)NCC(c1cccs1)S(=O)(=O)c1ccccc1 (stereo unspecified) -39.1%, CC1(C)CC(=O)c2cc(C(=O)Nc3ccccc3Cl)c(=O)n(-c3ccc(Cl)cc3)c2C1 -21.9%, COc1ccc2cc3cc(C(=O)NCc4ccccc4OC)oc3nc2c1 -11.6%, Cc1cccc(NC(=O)CSc2nc(-c3ccco3)cc(C(F)(F)F)n2)c1C -13.4%, Cc1ccc(N(Cc2cccs2)C(=O)c2ccccc2Cl)cc1 -29%, O=C(c1ccccc1Cl)N1CCCCC1CCN1CCCCC1 (stereo unspecified) -9.79%, O=C(Nc1nnc2n1CCS2)c1ccc(F)cc1F 52.5%, COc1ccc(NC(=O)C(C)N(c2ccccc2)S(C)(=O)=O)cc1 (stereo unspecified) 3.57% [at 11.5 µM], COc1ccc(C)cc1NC(=O)Cn1c(=O)n(Cc2nc(C)no2)c(=O)c2ccccc21 -0.649%, CCOc1ccccc1NC(=O)C(CC)Sc1nc2ccncc2[nH]1 (stereo unspecified) -27.8%, COc1ccc(NCc2cc3cc4c(cc3n(CC(=O)Nc3cc(C)ccc3C)c2=O)OCCO4)cc1 -6.09%, Cc1nn2c(=O)cc(COC(=O)c3ccccc3NC(=O)C(C)Oc3ccccc3)nc2s1 (stereo unspecified) -16.7%, Cc1ccc(-n2c(=O)c3ccc(C(=O)NCc4ccco4)cc3n(Cc3ccccc3C#N)c2=O)cc1 -1.12%, Cn1c(=O)c2cc(C(=O)NCCCN3CCN(c4ccccc4F)CC3)sc2c2ccccc21 -4.58%, COc1ccc(NC(=O)c2ccc3c(c2)sc2nc(-c4ccc(OC)cc4)cn23)cc1 6.99%, Cc1ccc(NC(=O)Cn2c(=O)n(Cc3ccco3)c(=O)c3ccccc32)c(C)c1 -7.86%, CCN(CC)c1cc2c(cc1F)c(=O)c(S(=O)(=O)c1cccc(C)c1)cn2C -15.9%, Cc1ccc(-c2cn(-c3cccc(Cl)c3)c(S(=O)(=O)CC(=O)Nc3ccccc3F)n2)cc1 38.4%, CCOc1ccc(C2CC(=O)N(c3cccc(F)c3)C3=C2C(=O)OC3)cc1 (stereo unspecified) 20.5%, Cc1ccc(-n2nc3c(=O)n(CCCC(=O)NCCc4ccccc4Cl)nc(C)c3c2C)cc1 -16.3%, NC(=O)c1ccccc1NC(=O)C1CCCN(c2ncnc3onc(-c4ccc(F)cc4)c23)C1 (stereo unspecified) -8.36%, Cc1ccc(NC(=O)CN2C(=O)CCc3cc(S(=O)(=O)N4CCOCC4)ccc32)cc1N(C)C -20.2%, O=C(NC1CCCC1)c1ccc2c(c1)N(Cc1ccc(C(F)(F)F)cc1)C(=O)c1ccccc1S2 -10%, Cc1ccccc1Cn1c(=O)n(Cc2ccc3c(c2)OCO3)c(=O)c2oc3ccccc3c21 -5.38%, COCCCNS(=O)(=O)c1cc(-c2onc(C)c2C)ccc1OC 5.5%, COc1ccc(N2CCN(C(=O)CSc3n[nH]c(-c4ccccc4)n3)CC2)cc1 -12%, CN(C)C(=O)c1ccc(NC(=O)Cn2nnnc2-c2ccccc2F)cc1 -11.5%, COc1ccccc1CNC(=O)Cc1c(C)c2c(cc(C)c3c(C)coc32)oc1=O -4.04%, COc1ccc(N(CC(=O)NCc2ccc(F)cc2)S(=O)(=O)c2c(C)noc2C)cc1 -16.4%, Cc1ccccc1C(=O)N(Cc1ccc(N(C)C)cc1)Cc1ccco1 -22.2%, COc1ccc(OC)c(-c2nc3c(C#N)c[nH]n3c2NC2CCCCC2)c1 -16.2%, CCCN(c1ccc(C(C)C)cc1)S(=O)(=O)c1ccc2c(c1)CCN2C(=O)CC -32.2%, CCc1nonc1NC(=O)c1oc2ccc(F)cc2c1C 36.7%, Cc1cccc(OCC(=O)NC(Cc2c[nH]c3ccccc23)C(=O)O)c1C (stereo unspecified) -4.79%, COc1ccc(CCNC(=O)C(=O)NCC(c2ccc3c(c2)OCO3)N2CCOCC2)cc1 (stereo unspecified) -18%, O=C(Nc1cc(F)ccc1F)N1CCC(CN2CCOCC2)CC1 -10.8%, Cc1ccc2c(CC(=O)Nc3cccc(Cl)c3C)coc2c1 -4.77%, Cn1c(=O)n(C/C=C/c2ccccc2)c(=O)c2c1nc1n2CCN1c1ccc(F)cc1 -5.14%, CCOC(=O)C1=C(C)NC(C)=C(C(=O)OCC)C1c1ccccc1/C=C/C(=O)OC(C)(C)C -23.9%, Cc1ccc(-c2nc3cc(NC(=O)c4cc5ccccc5o4)ccc3o2)cc1 24.7%, COc1ccc(C(=O)CC2(O)C(=O)Nc3c(C)cccc32)c(OC)c1OC (stereo unspecified) -2.14%
